MIC of invasive clinical C. tropicalis isolates, CLSI broth microdilution (fluconazole 0.12-256 mg/L, up to 1,024 for the azole-resistant cluster and its neighbour group; other ranges not stated); higher = less susceptible. Call: susceptible or wild type [S] / resistant or non-wild type [R] by CLSI breakpoints or cut-offs; intermediate and dose-dependent carry no call. '<=' and '>=' at the end values are inferred; the source marks only some of them. Isolates are numbered anew.
Legend:
Test in all cases: CLSI broth microdilution.
[1] = compound: C[C@@H]1[C@H](O)[C@@H](C)/C=C/C=C/C=C/C=C/C=C/C=C/C=C/[C@H](O[C@@H]2O[C@H](C)[C@@H](O)[C@H](N)[C@@H]2O)C[C@@H]2O[C@](O)(C[C@@H](O)C[C@@H](O)[C@H](O)CC[C@@H](O)C[C@@H](O)CC(=O)O[C@H]1C)C[C@H](O)[C@H]2C(=O)O [amphotericin B]
[2] = compound: CCC(C)n1ncn(-c2ccc(N3CCN(c4ccc(OCC5COC(Cn6cncn6)(c6ccc(Cl)cc6Cl)O5)cc4)CC3)cc2)c1=O [itraconazole]
[3] = compound: C[C@@H](c1ncncc1F)[C@](O)(Cn1cncn1)c1ccc(F)cc1F [voriconazole]
[4] = compound: CC[C@@H]([C@H](C)O)n1ncn(-c2ccc(N3CCN(c4ccc(OC[C@@H]5CO[C@@](Cn6cncn6)(c6ccc(F)cc6F)C5)cc4)CC3)cc2)c1=O [posaconazole]
[5] = compound: Nc1[nH]c(=O)ncc1F [flucytosine]
[6] = compound: CCCCCOc1ccc(-c2ccc(-c3ccc(C(=O)N[C@H]4C[C@@H](O)[C@@H](O)NC(=O)[C@@H]5[C@@H](O)[C@@H](C)CN5C(=O)[C@H]([C@@H](C)O)NC(=O)[C@H]([C@H](O)[C@@H](O)c5ccc(O)cc5)NC(=O)[C@@H]5C[C@@H](O)CN5C(=O)[C@H]([C@@H](C)O)NC4=O)cc3)cc2)cc1 [anidulafungin]
[7] = compound: CC[C@H](C)C[C@H](C)CCCCCCCCC(=O)N[C@H]1C[C@@H](O)[C@@H](NCCN)NC(=O)[C@@H]2[C@@H](O)CCN2C(=O)[C@H]([C@H](O)CCN)NC(=O)[C@H]([C@H](O)[C@@H](O)c2ccc(O)cc2)NC(=O)[C@@H]2C[C@@H](O)CN2C(=O)[C@H]([C@@H](C)O)NC1=O [caspofungin]
[8] = compound: CCCCCOc1ccc(-c2cc(-c3ccc(C(=O)N[C@H]4C[C@@H](O)[C@@H](O)NC(=O)[C@@H]5[C@@H](O)[C@@H](C)CN5C(=O)[C@H]([C@H](O)CC(N)=O)NC(=O)[C@H]([C@H](O)[C@@H](O)c5ccc(O)c(OS(=O)(=O)O)c5)NC(=O)[C@@H]5C[C@@H](O)CN5C(=O)[C@H]([C@@H](C)O)NC4=O)cc3)no2)cc1 [micafungin]
[9] = compound: OC(Cn1cncn1)(Cn1cncn1)c1ccc(F)cc1F [fluconazole]

Test System: Candida tropicalis isolate 279 (ERG11 copies: 8, Erg11p: Y132F, S154F (heterozygous))
- MIC [1]: 1 mg/L [S]
- MIC [2]: 0.5 mg/L [S]
- MIC [3]: ≥ 8 mg/L [R]
- MIC [4]: 0.5 mg/L [R]
- MIC [5]: ≤ 0.06 mg/L [S]
- MIC [6]: 0.03 mg/L [S]
- MIC [7]: 0.03 mg/L [S]
- MIC [8]: 0.03 mg/L [S]
- MIC [9]: 512 mg/L [R]

Test System: Candida tropicalis isolate 271 (ERG11 copies: 2, Erg11p: no key change)
- MIC [1]: 0.5 mg/L [S]
- MIC [2]: 0.03 mg/L [S]
- MIC [3]: 0.03 mg/L [S]
- MIC [4]: 0.03 mg/L [S]
- MIC [5]: ≤ 0.06 mg/L [S]
- MIC [6]: ≤ 0.015 mg/L [S]
- MIC [7]: 0.03 mg/L [S]
- MIC [8]: 0.03 mg/L [S]
- MIC [9]: 0.5 mg/L [S]

Test System: Candida tropicalis isolate 430 (ERG11 copies: 2, Erg11p: no key change)
- MIC [1]: 0.5 mg/L [S]
- MIC [2]: 0.015 mg/L [S]
- MIC [3]: ≤ 0.008 mg/L [S]
- MIC [4]: 0.03 mg/L [S]
- MIC [5]: ≤ 0.06 mg/L [S]
- MIC [6]: 0.03 mg/L [S]
- MIC [7]: 0.03 mg/L [S]
- MIC [8]: 0.03 mg/L [S]
- MIC [9]: 0.12 mg/L [S]

Test System: Candida tropicalis isolate 227 (ERG11 copies: 2, Erg11p: no key change)
- MIC [1]: 1 mg/L [S]
- MIC [2]: 0.25 mg/L [S]
- MIC [3]: 0.12 mg/L [S]
- MIC [4]: 0.12 mg/L [S]
- MIC [5]: ≤ 0.06 mg/L [S]
- MIC [6]: 0.12 mg/L [S]
- MIC [7]: 0.06 mg/L [S]
- MIC [8]: 0.06 mg/L [S]
- MIC [9]: 2 mg/L [S]

Test System: Candida tropicalis isolate 379 (ERG11 copies: 2, Erg11p: no key change)
- MIC [1]: 1 mg/L [S]
- MIC [2]: 0.5 mg/L [S]
- MIC [3]: 0.25 µg/mL
- MIC [4]: 0.5 mg/L [R]
- MIC [5]: ≤ 0.06 mg/L [S]
- MIC [6]: ≤ 0.015 mg/L [S]
- MIC [7]: 0.015 mg/L [S]
- MIC [8]: 0.015 mg/L [S]
- MIC [9]: 2 mg/L [S]

Test System: Candida tropicalis isolate 143 (ERG11 copies: 2, Erg11p: no key change)
- MIC [1]: 1 mg/L [S]
- MIC [2]: 0.12 mg/L [S]
- MIC [3]: 0.06 mg/L [S]
- MIC [4]: 0.12 mg/L [S]
- MIC [5]: ≤ 0.06 mg/L [S]
- MIC [6]: 0.03 mg/L [S]
- MIC [7]: 0.06 mg/L [S]
- MIC [8]: 0.03 mg/L [S]
- MIC [9]: 1 mg/L [S]

Test System: Candida tropicalis isolate 448 (ERG11 copies: 7, Erg11p: Y132F, S154F (heterozygous))
- MIC [1]: 0.5 mg/L [S]
- MIC [2]: 2 mg/L [R]
- MIC [3]: > 8 mg/L [R]
- MIC [4]: 1 mg/L [R]
- MIC [5]: ≤ 0.06 mg/L [S]
- MIC [6]: 0.03 mg/L [S]
- MIC [7]: 0.06 mg/L [S]
- MIC [8]: 0.015 mg/L [S]
- MIC [9]: 1020 mg/L [R]

Test System: Candida tropicalis isolate 446 (ERG11 copies: 2, Erg11p: no key change)
- MIC [1]: 0.5 mg/L [S]
- MIC [2]: 0.12 mg/L [S]
- MIC [3]: 0.06 mg/L [S]
- MIC [4]: 0.06 mg/L [S]
- MIC [5]: ≤ 0.06 mg/L [S]
- MIC [6]: ≤ 0.015 mg/L [S]
- MIC [7]: 0.03 mg/L [S]
- MIC [8]: 0.015 mg/L [S]
- MIC [9]: 1 mg/L [S]

Test System: Candida tropicalis isolate 75 (ERG11 copies: 2, Erg11p: no key change)
- MIC [1]: 1 mg/L [S]
- MIC [2]: 0.25 mg/L [S]
- MIC [3]: 0.12 mg/L [S]
- MIC [4]: 0.25 mg/L [S]
- MIC [5]: ≤ 0.06 mg/L [S]
- MIC [6]: 0.12 mg/L [S]
- MIC [7]: 0.06 mg/L [S]
- MIC [8]: 0.03 mg/L [S]
- MIC [9]: 2 mg/L [S]

Test System: Candida tropicalis isolate 232 (ERG11 copies: 2, Erg11p: no key change)
- MIC [1]: 1 mg/L [S]
- MIC [2]: 0.25 mg/L [S]
- MIC [3]: 0.5 µg/mL
- MIC [4]: 0.25 mg/L [S]
- MIC [5]: 0.25 mg/L [S]
- MIC [6]: 0.06 mg/L [S]
- MIC [7]: 0.03 mg/L [S]
- MIC [8]: 0.03 mg/L [S]
- MIC [9]: 8 mg/L [R]

Test System: Candida tropicalis isolate 66 (ERG11 copies: 2, Erg11p: Y132F, S154F (heterozygous))
- MIC [1]: 1 mg/L [S]
- MIC [2]: 0.5 mg/L [S]
- MIC [3]: 2 mg/L [R]
- MIC [4]: 0.5 mg/L [R]
- MIC [5]: ≤ 0.06 mg/L [S]
- MIC [6]: 0.03 mg/L [S]
- MIC [7]: 0.03 mg/L [S]
- MIC [8]: 0.03 mg/L [S]
- MIC [9]: 32 mg/L [R]

Test System: Candida tropicalis isolate 401 (ERG11 copies: 10, Erg11p: Y132F, S154F (heterozygous))
- MIC [1]: 2 mg/L [S]
- MIC [2]: 1 mg/L [R]
- MIC [3]: ≥ 8 mg/L [R]
- MIC [4]: 2 mg/L [R]
- MIC [5]: ≤ 0.06 mg/L [S]
- MIC [6]: 0.06 mg/L [S]
- MIC [7]: 0.03 mg/L [S]
- MIC [8]: 0.03 mg/L [S]
- MIC [9]: 512 mg/L [R]

Test System: Candida tropicalis isolate 304 (ERG11 copies: 2, Erg11p: Y132F, S154F (heterozygous))
- MIC [1]: 1 mg/L [S]
- MIC [2]: 0.25 mg/L [S]
- MIC [3]: 0.5 µg/mL
- MIC [4]: 0.12 mg/L [S]
- MIC [5]: 0.12 mg/L [S]
- MIC [6]: 0.12 mg/L [S]
- MIC [7]: 0.03 mg/L [S]
- MIC [8]: 0.03 mg/L [S]
- MIC [9]: 16 mg/L [R]

Test System: Candida tropicalis isolate 332 (ERG11 copies: 2, Erg11p: no key change)
- MIC [1]: 0.5 mg/L [S]
- MIC [2]: 0.12 mg/L [S]
- MIC [3]: 0.12 mg/L [S]
- MIC [4]: 0.12 mg/L [S]
- MIC [5]: 0.12 mg/L [S]
- MIC [6]: 0.12 mg/L [S]
- MIC [7]: 0.06 mg/L [S]
- MIC [8]: 0.03 mg/L [S]
- MIC [9]: 2 mg/L [S]

Test System: Candida tropicalis isolate 251 (ERG11 copies: 2, Erg11p: no key change)
- MIC [1]: 0.5 mg/L [S]
- MIC [2]: 0.12 mg/L [S]
- MIC [3]: 0.03 mg/L [S]
- MIC [4]: 0.06 mg/L [S]
- MIC [5]: ≤ 0.06 mg/L [S]
- MIC [6]: 0.12 mg/L [S]
- MIC [7]: 0.06 mg/L [S]
- MIC [8]: 0.06 mg/L [S]
- MIC [9]: 1 mg/L [S]

Test System: Candida tropicalis isolate 62 (ERG11 copies: 2, Erg11p: no key change)
- MIC [1]: 1 mg/L [S]
- MIC [2]: 0.25 mg/L [S]
- MIC [3]: 0.12 mg/L [S]
- MIC [4]: 0.25 mg/L [S]
- MIC [5]: ≤ 0.06 mg/L [S]
- MIC [6]: ≤ 0.015 mg/L [S]
- MIC [7]: 0.03 mg/L [S]
- MIC [8]: 0.03 mg/L [S]
- MIC [9]: 2 mg/L [S]

Test System: Candida tropicalis isolate 254 (ERG11 copies: 2, Erg11p: no key change)
- MIC [1]: 1 mg/L [S]
- MIC [2]: 0.06 mg/L [S]
- MIC [3]: 0.03 mg/L [S]
- MIC [4]: 0.06 mg/L [S]
- MIC [5]: ≤ 0.06 mg/L [S]
- MIC [6]: 0.03 mg/L [S]
- MIC [7]: 0.03 mg/L [S]
- MIC [8]: 0.015 mg/L [S]
- MIC [9]: 0.5 mg/L [S]

Test System: Candida tropicalis isolate 252 (ERG11 copies: 2, Erg11p: no key change)
- MIC [1]: 0.5 mg/L [S]
- MIC [2]: 0.5 mg/L [S]
- MIC [3]: 0.25 µg/mL
- MIC [4]: 0.5 mg/L [R]
- MIC [5]: ≤ 0.06 mg/L [S]
- MIC [6]: 0.03 mg/L [S]
- MIC [7]: 0.12 mg/L [S]
- MIC [8]: 0.03 mg/L [S]
- MIC [9]: 4 µg/mL

From the supplement of paper PMC10724272
